# Measurements: patent publication US11542275B2, “Substituted imidazolidin-2-one derivatives as PRMT5 inhibitors” (Aurigene Discovery Technologies Limited, priority 2018, dated 2023)
# Target: PRMT5/MEP50 Complex (Homo sapiens (Human), UniProt O14744)
# Assay: PRMT5 inhibition based on TR-FRET assay
# Format: biochemical
# Details: 32 nM PRMT5:MEP50 complex, 50 nM Histone-H4 peptide, 1 μM SAM, 90 minutes at room temperature
# Excerpt: Protein arginine methyltransferase 5 (PRMT5) is a type II arginine methyltransferase that catalyze mono- and symmetric demethylation on arginine residues of histone or non-histone proteins in presence of S-adenosylmethionine (AdoMet or SAM) a cofactor responsible for donating the methyl group. PRMT5 is reported to be overexpressed in several human cancers. To identify compounds that inhibit the PRMT5 and decrease its activity, a TR-FRET based assay has been established. Time-resolved fluorescence resonance energy transfer (TR-FRET) HTS assays are homogeneous proximity assays where the interaction of two dye-labeled binding partners is detected by the energy transfer between a donor and an acceptor dye, and the subsequent light emission by the acceptor dye. PRMT5 catalyzes Histone H4 peptide which is biotin tagged to the Lysine amino acid at carboxyl end, in presence of S-adenosyl-1-methionine (SAM) to methylate the peptide. The antibody specific to mono methylated H4 peptide (H4R3) with Ig conjugate binds to the methylated peptide, indirectly binding to the Europium lanthanide. SureLight Allophycocyanin-Streptavidin binds to the biotin tag of the peptide, therefore accepting the energy transferred from the Europium lanthanide. This energy transfer between Europium to SureLight Allophycocyanin is a direct measure of the activity/inhibition of the PRMT5 enzyme.
# Assay buffer: 20 mM BICINE (pH 7.6), 25 mM NaCl, 2 mM DTT, 0.01% Tween-20 and 0.01% BSA.
# The compound dilutions were prepared as 7.5% DMSO stock solutions in assay buffer. To 2 μL (7.5×) of test compound, 5 μL of PRMT5 enzyme prepared in assay buffer (Final concentration of 32 nM in 15 μL reaction volume) was added and allowed for 30 minutes pre-incubation time in a white polystyrene 384-well plate at room temperature. […] The plates were then read on Victor-3 with Excitation at 340 nm and Emissions collected at 615 and 665 nm in TR-FRET protocol. […]
row,IC50 [µM],SMILES
1,0.116,"CC(C)(C(=O)O)C1CCN(c2ccc(CN3CCN(C[C@H](O)CN4CCc5ccccc5C4)C3=O)nc2)CC1 [Compound 14, (R)-2-(1-(6-((3-(3-(3,4-dihydroisoquinolin-2(1H)-yl)-2-hydroxypropyl)-2-oxoimidazolidin-1-yl)methyl)pyridin-3-yl)piperidin-4-yl)-2-methylpropanoic acid]"
2,0.058,"N#CC1CCN(c2ccc(CN3CCN(C[C@H](O)CN4CCc5ccccc5C4)C3=O)nc2)CC1 [Compound 9, (R)-1-(6-((3-(3-(3,4-dihydroisoquinolin-2(1H)-yl)-2-hydroxypropyl)-2-oxoimidazolidin-1-yl)methyl)pyridin-3-yl)piperidine-4-carbonitrile]"

row,SMILES,IC50 [µM]
1,"O=C1N(Cc2cnc(N3C4CCC3COC4)cn2)CCN1C[C@H](O)CN1CCc2ccccc2C1 [Compound 24, 1-((5-(3-oxa-8-azabicyclo[3.2.1]octan-8-yl)pyrazin-2-yl)methyl)-3-((R)-3-(3,4-dihydroisoquinolin-2(1H)-yl)-2-hydroxypropyl)imidazolidin-2-one]",0.234
